# Measurements published in the supplement of paper PMC8728848.
# The other results are listed elsewhere or left out.
# B1: Siglec-9 (Homo sapiens), Q9Y336 (protein)
# chain: MLLLLLPLLWGRERAEGQTSKLLTMQSSVTVQEGLCVHVPCSFSYPSHGWIYPGPVVHGYWFREGANTDQDAPVATNNPARAVWEETRDRFHLLGDPHTKNCTLSIRDARRSDAGRYFFRMEKGSIKWNYKHHRLSVNVTALTHRPNILIPGTLESGCPQNLTCSVPWACEQGTPPMISWIGTSVSPLDPSTTRSSVLTLIPQPQDHGTSLTCQVTFPGASVTTNKTVHLNVSYPPQNLTMTVFQGDGTVSTVLGNGSSLSLPEGQSLRLVCAVDAVDSNPPARLSLSWRGLTLCPSQPSNPGVLELPWVHLRDAAEFTCRAQNPLGSQQVYLNVSLQSKATSGVTQGVVGGAGATALVFLSFCVIFVVVRSCRKKSARPAAGVGDTGIEDANAVRGSASQGPLTEPWAEDSPPDQPPPASARSSVGEGELQYASLSFQMVKPWDSRGQEATDTEYSEIKIHR
# Assays:
# Assay in all cases: glycan array binding signal (z-score within array); higher = stronger binding
# Conditions in all cases: glycan notation: IUPAC condensed, linker removed
# [1] = target: Gal(b1-4)GlcNAc(b1-2)[Gal(b1-4)GlcNAc(b1-6)]Man(a1-6)[Gal(b1-4)GlcNAc(b1-2)Man(a1-3)]Man(b1-4)GlcNAc(b1-4)[Fuc(a1-6)]GlcNAc
# Summary of the method: (§1)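 Columns mapping to the same glycan were averaged after glycan names were converted to IUPAC-condensed notation. The data come from 3228 arrays in the Consortium for Functional Glycomics database, limited to those with an available protein sequence. Binding is reported as a within-array Z-score averaged across arrays of one protein sequence and across linkers.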
# [2] = target: Gal(b1-4)GlcNAc(b1-2)[Gal(b1-4)GlcNAc(b1-6)]Man(a1-6)[GlcNAc(b1-4)][Gal(b1-4)GlcNAc(b1-2)Man(a1-3)]Man(b1-4)GlcNAc(b1-4)GlcNAc
# Summary of the method: as §1
# [3] = target: Gal(b1-4)GlcNAc(b1-2)[Gal(b1-4)GlcNAc(b1-6)]Man(a1-6)[GlcNAc(b1-4)][Gal(b1-4)GlcNAc(b1-2)[Gal(b1-4)GlcNAc(b1-4)]Man(a1-3)]Man(b1-4)GlcNAc(b1-4)[Fuc(a1-6)]GlcNAc
# Summary of the method: as §1
# [4] = target: Gal(b1-4)GlcNAc(b1-3)Gal(b1-3)GalNAc
# Summary of the method: as §1
# [5] = target: Gal(b1-4)GlcNAc(b1-3)Gal(b1-3)GlcNAc
# Summary of the method: as §1
# [6] = target: Gal(b1-4)GlcNAc(b1-3)Gal(b1-4)Glc
# Summary of the method: as §1
# [7] = target: Gal(b1-4)GlcNAc(b1-3)Gal(b1-4)GlcNAc
# Summary of the method: as §1
# [8] = target: Gal(b1-4)GlcNAc(b1-3)Gal(b1-4)GlcNAc(b1-2)Man(a1-3)[Gal(b1-4)GlcNAc(b1-3)Gal(b1-4)GlcNAc(b1-2)Man(a1-6)]Man(b1-4)GlcNAc(b1-4)GlcNAc
# Summary of the method: as §1
# [9] = target: Gal(b1-4)GlcNAc(b1-3)Gal(b1-4)GlcNAc(b1-2)Man(a1-3)[Gal(b1-4)GlcNAc(b1-3)Gal(b1-4)GlcNAc(b1-2)Man(a1-6)]Man(b1-4)GlcNAc(b1-4)[Fuc(a1-6)]GlcNAc
# Summary of the method: as §1
# [10] = target: Gal(b1-4)GlcNAc(b1-3)Gal(b1-4)GlcNAc(b1-2)[Gal(b1-4)GlcNAc(b1-3)Gal(b1-4)GlcNAc(b1-6)]Man(a1-6)[Gal(b1-4)GlcNAc(b1-3)Gal(b1-4)GlcNAc(b1-2)Man(a1-3)]Man(b1-4)GlcNAc(b1-4)GlcNAc
# Summary of the method: as §1
# [11] = target: Gal(b1-4)GlcNAc(b1-3)Gal(b1-4)GlcNAc(b1-2)[Gal(b1-4)GlcNAc(b1-3)Gal(b1-4)GlcNAc(b1-6)]Man(a1-6)[Gal(b1-4)GlcNAc(b1-3)Gal(b1-4)GlcNAc(b1-2)Man(a1-3)]Man(b1-4)GlcNAc(b1-4)[Fuc(a1-6)]GlcNAc
# Summary of the method: as §1
# [12] = target: Gal(b1-4)GlcNAc(b1-3)Gal(b1-4)GlcNAc(b1-3)Gal(b1-4)GlcNAc
# Summary of the method: as §1
# [13] = target: Gal(b1-4)GlcNAc(b1-3)Gal(b1-4)GlcNAc(b1-3)Gal(b1-4)GlcNAc(b1-2)Man(a1-3)[Gal(b1-4)GlcNAc(b1-3)Gal(b1-4)GlcNAc(b1-3)Gal(b1-4)GlcNAc(b1-2)Man(a1-6)]Man(b1-4)GlcNAc(b1-4)GlcNAc
# Summary of the method: as §1
# [14] = target: Gal(b1-4)GlcNAc(b1-3)Gal(b1-4)GlcNAc(b1-3)Gal(b1-4)GlcNAc(b1-2)Man(a1-3)[Gal(b1-4)GlcNAc(b1-3)Gal(b1-4)GlcNAc(b1-3)Gal(b1-4)GlcNAc(b1-2)Man(a1-6)]Man(b1-4)GlcNAc(b1-4)[Fuc(a1-6)]GlcNAc
# Summary of the method: as §1
# [15] = target: Gal(b1-4)GlcNAc(b1-3)Gal(b1-4)GlcNAc(b1-3)Gal(b1-4)GlcNAc(b1-2)[Gal(b1-4)GlcNAc(b1-3)Gal(b1-4)GlcNAc(b1-3)Gal(b1-4)GlcNAc(b1-6)]Man(a1-6)[Gal(b1-4)GlcNAc(b1-3)Gal(b1-4)GlcNAc(b1-3)Gal(b1-4)GlcNAc(b1-2)Man(a1-3)]Man(b1-4)GlcNAc(b1-4)[Fuc(a1-6)]GlcNAc
# Summary of the method: as §1
# [16] = target: Gal(b1-4)GlcNAc(b1-3)Gal(b1-4)GlcNAc(b1-3)Gal(b1-4)GlcNAc(b1-3)Gal(b1-4)GlcNAc(b1-2)Man(a1-3)[Gal(b1-4)GlcNAc(b1-3)Gal(b1-4)GlcNAc(b1-3)Gal(b1-4)GlcNAc(b1-3)Gal(b1-4)GlcNAc(b1-2)Man(a1-6)]Man(b1-4)GlcNAc(b1-4)GlcNAc
# Summary of the method: as §1
# [17] = target: Gal(b1-4)GlcNAc(b1-3)Gal(b1-4)GlcNAc(b1-3)Gal(b1-4)GlcNAc(b1-3)Gal(b1-4)GlcNAc(b1-2)Man(a1-3)[Gal(b1-4)GlcNAc(b1-3)Gal(b1-4)GlcNAc(b1-3)Gal(b1-4)GlcNAc(b1-3)Gal(b1-4)GlcNAc(b1-2)Man(a1-6)]Man(b1-4)GlcNAc(b1-4)[Fuc(a1-6)]GlcNAc
# Summary of the method: as §1
# [18] = target: Gal(b1-4)GlcNAc(b1-3)Gal(b1-4)GlcNAc(b1-3)Gal(b1-4)GlcNAc(b1-3)Gal(b1-4)GlcNAc(b1-2)[Gal(b1-4)GlcNAc(b1-3)Gal(b1-4)GlcNAc(b1-3)Gal(b1-4)GlcNAc(b1-3)Gal(b1-4)GlcNAc(b1-6)]Man(a1-6)[Gal(b1-4)GlcNAc(b1-3)Gal(b1-4)GlcNAc(b1-3)Gal(b1-4)GlcNAc(b1-3)Gal(b1-4)GlcNAc(b1-2)Man(a1-3)]Man(b1-4)GlcNAc(b1-4)[Fuc(a1-6)]GlcNAc
# Summary of the method: as §1
# [19] = target: Gal(b1-4)GlcNAc(b1-3)Gal(b1-4)GlcNAc(b1-3)Gal(b1-4)GlcNAc(b1-3)Gal(b1-4)GlcNAc(b1-3)Gal(b1-4)GlcNAc(b1-2)Man(a1-3)[Gal(b1-4)GlcNAc(b1-3)Gal(b1-4)GlcNAc(b1-3)Gal(b1-4)GlcNAc(b1-3)Gal(b1-4)GlcNAc(b1-3)Gal(b1-4)GlcNAc(b1-2)Man(a1-6)]Man(b1-4)GlcNAc(b1-4)GlcNAc
# Summary of the method: as §1
# [20] = target: Gal(b1-4)GlcNAc(b1-3)Gal(b1-4)GlcNAc(b1-3)Gal(b1-4)GlcNAc(b1-3)Gal(b1-4)GlcNAc(b1-3)Gal(b1-4)GlcNAc(b1-2)Man(a1-3)[Gal(b1-4)GlcNAc(b1-3)Gal(b1-4)GlcNAc(b1-3)Gal(b1-4)GlcNAc(b1-3)Gal(b1-4)GlcNAc(b1-3)Gal(b1-4)GlcNAc(b1-2)Man(a1-6)]Man(b1-4)GlcNAc(b1-4)[Fuc(a1-6)]GlcNAc
# Summary of the method: as §1
# [21] = target: Gal(b1-4)GlcNAc(b1-3)Gal(b1-4)GlcNAc(b1-3)Gal(b1-4)GlcNAc(b1-3)Gal(b1-4)GlcNAc(b1-3)Gal(b1-4)GlcNAc(b1-2)[Gal(b1-4)GlcNAc(b1-3)Gal(b1-4)GlcNAc(b1-3)Gal(b1-4)GlcNAc(b1-3)Gal(b1-4)GlcNAc(b1-3)Gal(b1-4)GlcNAc(b1-6)]Man(a1-6)[Gal(b1-4)GlcNAc(b1-3)Gal(b1-4)GlcNAc(b1-3)Gal(b1-4)GlcNAc(b1-3)Gal(b1-4)GlcNAc(b1-3)Gal(b1-4)GlcNAc(b1-2)Man(a1-3)]Man(b1-4)GlcNAc(b1-4)[Fuc(a1-6)]GlcNAc
# Summary of the method: as §1
# [22] = target: Gal(b1-4)GlcNAc(b1-3)Gal(b1-4)GlcNAc(b1-3)Gal(b1-4)GlcNAc(b1-3)Gal(b1-4)GlcNAc(b1-3)Gal(b1-4)GlcNAc(b1-3)Gal(b1-4)GlcNAc(b1-2)Man(a1-3)[Gal(b1-4)GlcNAc(b1-3)Gal(b1-4)GlcNAc(b1-3)Gal(b1-4)GlcNAc(b1-3)Gal(b1-4)GlcNAc(b1-3)Gal(b1-4)GlcNAc(b1-3)Gal(b1-4)GlcNAc(b1-2)Man(a1-6)]Man(b1-4)GlcNAc(b1-4)GlcNAc
# Summary of the method: as §1
# [23] = target: Gal(b1-4)GlcNAc(b1-3)Gal(b1-4)GlcNAc(b1-3)GalNAc
# Summary of the method: as §1
# [24] = target: Gal(b1-4)GlcNAc(b1-3)Gal(b1-4)GlcNAc(b1-3)[Gal(b1-4)GlcNAc(b1-3)Gal(b1-4)GlcNAc(b1-6)]GalNAc
# Summary of the method: as §1
# [25] = target: Gal(b1-4)GlcNAc(b1-3)Gal(b1-4)GlcNAc(b1-6)[Gal(b1-3)]GalNAc
# Summary of the method: as §1
# [26] = target: Gal(b1-4)GlcNAc(b1-3)Gal(b1-4)[Fuc(a1-3)]GlcNAc(b1-3)Gal(b1-4)[Fuc(a1-3)]GlcNAc
# Summary of the method: as §1
# [27] = target: Gal(b1-4)GlcNAc(b1-3)GalNAc
# Summary of the method: as §1
# [28] = target: Gal(b1-4)GlcNAc(b1-3)[Fuc(a1-3)GlcNAc(b1-6)]Gal(b1-4)Glc
# Summary of the method: as §1
# [29] = target: Gal(b1-4)GlcNAc(b1-3)[Gal(b1-4)GlcNAc(b1-6)]Gal(b1-4)GlcNAc
# Summary of the method: as §1
# [30] = target: Gal(b1-4)GlcNAc(b1-3)[GlcNAc(b1-6)]Gal(b1-4)GlcNAc
# Summary of the method: as §1
# [31] = target: Gal(b1-4)GlcNAc(b1-6)Gal(b1-4)GlcNAc
# Summary of the method: as §1
# [32] = target: Gal(b1-4)GlcNAc(b1-6)GalNAc
# Summary of the method: as §1
# [33] = target: Gal(b1-4)GlcNAc(b1-6)[Gal(b1-3)]GalNAc
# Summary of the method: as §1
# [34] = target: Gal(b1-4)GlcNAc(b1-6)[Gal(b1-4)GlcNAc(b1-3)]GalNAc
# Summary of the method: as §1
# Gal(b1-4)GlcNAc6P = target: Gal(b1-4)GlcNAc6P
# Summary of the method: as §1
# Gal(b1-6)Gal = target: Gal(b1-6)Gal
# Summary of the method: as §1
# Gal3S(b1-3)GalNAc = target: Gal3S(b1-3)GalNAc
# Summary of the method: as §1
# Gal3S(b1-3)GlcNAc = target: Gal3S(b1-3)GlcNAc
# Summary of the method: as §1
binder,measurement,setting,value
B1,glycan array binding signal (z-score),[1],0.273
same,glycan array binding signal (z-score),[2],-0.211
same,glycan array binding signal (z-score),[3],-0.304
same,glycan array binding signal (z-score),[4],-0.1
same,glycan array binding signal (z-score),[5],0.172
same,glycan array binding signal (z-score),[6],-0.032
same,glycan array binding signal (z-score),[7],-0.249
same,glycan array binding signal (z-score),[8],0.358
same,glycan array binding signal (z-score),[9],-0.033
same,glycan array binding signal (z-score),[10],0.123
same,glycan array binding signal (z-score),[11],-0.002
same,glycan array binding signal (z-score),[12],-0.247
same,glycan array binding signal (z-score),[13],0.078
same,glycan array binding signal (z-score),[14],-0.013
same,glycan array binding signal (z-score),[15],0.172
same,glycan array binding signal (z-score),[16],-0.292
same,glycan array binding signal (z-score),[17],0.258
same,glycan array binding signal (z-score),[18],-0.059
same,glycan array binding signal (z-score),[19],-0.162
same,glycan array binding signal (z-score),[20],-0.149
same,glycan array binding signal (z-score),[21],0.136
same,glycan array binding signal (z-score),[22],0.009
same,glycan array binding signal (z-score),[23],-0.054
same,glycan array binding signal (z-score),[24],0.262
same,glycan array binding signal (z-score),[25],-0.065
same,glycan array binding signal (z-score),[26],-0.032
same,glycan array binding signal (z-score),[27],-0.248
same,glycan array binding signal (z-score),[28],-0.192
same,glycan array binding signal (z-score),[29],-0.221
same,glycan array binding signal (z-score),[30],-0.401
same,glycan array binding signal (z-score),[31],-0.302
same,glycan array binding signal (z-score),[32],-0.17
same,glycan array binding signal (z-score),[33],-0.219
same,glycan array binding signal (z-score),[34],-0.148
same,glycan array binding signal (z-score),Gal(b1-4)GlcNAc6P,-0.074
same,glycan array binding signal (z-score),Gal(b1-6)Gal,-0.1
same,glycan array binding signal (z-score),Gal3S(b1-3)GalNAc,-0.157
same,glycan array binding signal (z-score),Gal3S(b1-3)GlcNAc,-0.151
